This note sets out measurements from patent publication US20180072806A1 (SHIRE HUMAN GENETIC THERAPIES, published 2018).

The target in assay [1] is T1, mouse Flt-1 (mouse) (UniProt P35969).
T1 sequence (looked up): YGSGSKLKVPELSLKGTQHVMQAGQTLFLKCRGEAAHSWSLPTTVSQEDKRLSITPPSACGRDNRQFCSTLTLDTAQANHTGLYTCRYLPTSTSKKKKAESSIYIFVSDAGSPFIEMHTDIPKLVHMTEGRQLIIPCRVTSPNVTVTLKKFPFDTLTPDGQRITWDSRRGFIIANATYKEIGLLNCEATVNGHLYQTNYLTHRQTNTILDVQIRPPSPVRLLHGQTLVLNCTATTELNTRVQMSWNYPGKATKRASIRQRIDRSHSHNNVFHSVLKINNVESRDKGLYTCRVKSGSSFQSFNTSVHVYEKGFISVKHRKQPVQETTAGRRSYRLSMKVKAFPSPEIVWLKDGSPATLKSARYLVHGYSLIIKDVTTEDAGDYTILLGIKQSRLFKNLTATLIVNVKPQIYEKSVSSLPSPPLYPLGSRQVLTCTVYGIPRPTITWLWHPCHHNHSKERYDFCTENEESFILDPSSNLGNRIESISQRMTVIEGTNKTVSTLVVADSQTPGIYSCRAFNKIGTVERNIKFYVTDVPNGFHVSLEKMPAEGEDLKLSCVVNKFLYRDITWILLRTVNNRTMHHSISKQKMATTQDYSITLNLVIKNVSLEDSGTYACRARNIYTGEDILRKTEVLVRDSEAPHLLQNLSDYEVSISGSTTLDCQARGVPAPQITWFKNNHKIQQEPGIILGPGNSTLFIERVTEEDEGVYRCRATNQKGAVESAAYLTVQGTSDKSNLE
The experiment in a line: IC50 by ELISA (Table 4). A general note: In an ELISA, binding on a coated surface is turned into a signal by an enzyme label.

Assay [2] has as its target T2, recombinant human soluble Flt-1 (human, UniProt P17948 27-758).
T2 construct: Recombinant soluble form (immunogen bought from ABCAM); also called human sFlt-1; sFlt-1
T2 sequence (P17948 27-758 limits assumed): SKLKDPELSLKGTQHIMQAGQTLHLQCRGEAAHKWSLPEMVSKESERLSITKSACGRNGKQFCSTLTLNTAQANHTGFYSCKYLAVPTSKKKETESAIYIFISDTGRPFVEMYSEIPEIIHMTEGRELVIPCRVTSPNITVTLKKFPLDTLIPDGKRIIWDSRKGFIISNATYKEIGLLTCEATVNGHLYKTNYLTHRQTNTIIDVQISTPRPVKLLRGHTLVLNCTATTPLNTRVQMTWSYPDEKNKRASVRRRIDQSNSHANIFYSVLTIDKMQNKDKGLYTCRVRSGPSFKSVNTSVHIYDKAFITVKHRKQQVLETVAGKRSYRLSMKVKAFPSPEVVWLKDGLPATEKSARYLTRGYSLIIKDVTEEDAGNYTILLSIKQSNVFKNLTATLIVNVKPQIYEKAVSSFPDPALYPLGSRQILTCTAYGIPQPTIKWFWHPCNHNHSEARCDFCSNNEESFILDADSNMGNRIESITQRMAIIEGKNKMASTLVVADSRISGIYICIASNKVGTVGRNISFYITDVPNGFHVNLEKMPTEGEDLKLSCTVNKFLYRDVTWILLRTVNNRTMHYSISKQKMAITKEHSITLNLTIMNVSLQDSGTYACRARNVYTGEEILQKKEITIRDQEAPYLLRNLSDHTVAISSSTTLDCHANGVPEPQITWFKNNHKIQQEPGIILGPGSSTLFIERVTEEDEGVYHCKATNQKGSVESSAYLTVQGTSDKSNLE
In words: IC50 by ELISA (Table 4).

Assay [3] deals with T1, mouse Flt-1 (mouse). In words: SPR (Biacore). (In general: In SPR one partner is held on a chip, and binding of the other changes the refractive index at the surface.)
Assay [4] deals with T2, recombinant human soluble Flt-1. The experiment in a line: SPR (Biacore).
The target of assay [5] is T1, mouse Flt-1 (mouse). The experiment in a line: Affinity (nM) of Table 4; method not given.
Assay [6] has as its target T2, recombinant human soluble Flt-1. The experiment in a line: Affinity (nM) of Table 4; method not given.
In assay [7] the target is T1, mouse Flt-1 (mouse). The experiment in a line: cell-based or functional assay.
Assay [8] addresses T2, recombinant human soluble Flt-1. In words: cell-based or functional assay.

B1: anti-Flt-1 antibody 13B4 (antibody, part only; not given: light chain, part only)
heavy: ELQLVESGGGLVQPGGSLRLSCAASGFTFRDYSMSWVRQAPGKGLEWVSAISWNGDSTYYAESMKGRFTISRDNAKNTLYLQMNSLKSEDTAVYYCAKSWATPIESLYYYGMDYWGKGTLVTVSS[omitted - human IgG1 constant region with H429N (EU numbers)]
As a reminder, the IC50 is the point on the concentration scale where inhibition reaches its midpoint. In general, Kd refers to the equilibrium constant for the complex coming apart. Regarding B1, the IC50 in assay [1] worked out at 0.5 nM; in assay [2], 0.0133 nM. Moreover, the Kd came out at 1.4 nM in assay [3], 0.58 nM in assay [4], 1.4 nM in assay [5] and 0.6 nM in assay [6]. In assay [7], this molecule yielded a Bioassay (% rescue), mFlt-1 of 72.2%. Further, the Bioassay (% rescue), hFlt-1 in assay [8] is 90%.
